Source: the supplement of paper PMC11876631
± gives the standard deviation of the averaged measurements. Laboratory Escherichia coli strains with one amino-acid change in an essential protein, pooled on minimal glucose agar with carbenicillin or gentamicin at twice the control MIC (plus kanamycin and chloramphenicol for the plasmids), 48 h. Fold change of barcode share against drug-free plates; higher = less susceptible. Active = above 20 in both replicates (the paper's putatively resistant). '<' = one read or none on drug, '>' = one read or none on a drug-free plate. Shares are relative, so most strains fall below 1 when a few take over. Listed are strains with at least 15 reads on both drug-free plates, and hits; most hits rest on fewer reference reads. Replicate rank correlation about 0.5. Edits are read from barcodes.

B1: trpA; numbered along this chain (parent)
chain: MERYESLFAQLKERKEGAFVPFVTLGDPGIEQSLKIIDTLIEAGADALELGIPFSDPLADGPTIQNATLRAFAAGVTPAQCFEMLALIRQKHPTIPIGLLMYANLVFNKGIDEFYAQCEKVGVDSVLVADVPVEESAPFRQAALRHNVAPIFICPPNADDDLLRQIASYGRGYTYLLSRAGVTGAENRAALPLNHLVAKLKEYNAAPPLQGFGISAPDQVKAAIDAGAAGAISGSAIVKIIEQHINEPEKMLAALKVFVQPMKAATRS
B2: yihA; numbered along this chain (parent)
chain: MTNLNYQQTHFVMSAPDIRHLPSDTGIEVAFAGRSNAGKSSALNTLTNQKSLARTSKTPGRTQLINLFEVADGKRLVDLPGYGYAEVPEEMKRKWQRALGEYLEKRQSLQGLVVLMDIRHPLKDLDQQMIEWAVDSNIAVLVLLTKADKLASGARKAQLNMVREAVLAFNGDVQVETFSSLKKQGVDKLRQKLDTWFSEMQPVEETQDGE
B3: topA; numbered along this chain (parent)
chain: MGKALVIVESPAKAKTINKYLGSDYVVKSSVGHIRDLPTSGSAAKKSADSTSTKTAKKPKKDERGALVNRMGVDPWHNWEAHYEVLPGKEKVVSELKQLAEKADHIYLATDLDREGEAIAWHLREVIGGDDARYSRVVFNEITKNAIRQAFNKPGELNIDRVNAQQARRFMDRVVGYMVSPLLWKKIARGLSAGRVQSVAVRLVVEREREIKAFVPEEFWEVDASTTTPSGEALALQVTHQNDKPFRPVNKEQTQAAVSLLEKARYSVLEREDKPTTSKPGAPFITSTLQQAASTRLGFGVKKTMMMAQRLYEAGYITYMRTDSTNLSQDAVNMVRGYISDNFGKKYLPESPNQYASKENSQEAHEAIRPSDVNVMAESLKDMEADAQKLYQLIWRQFVACQMTPAKYDSTTLTVGAGDFRLKARGRILRFDGWTKVMPALRKGDEDRILPAVNKGDALTLVELTPAQHFTKPPARFSEASLVKELEKRGIGRPSTYASIISTIQDRGYVRVENRRFYAEKMGEIVTDRLEENFRELMNYDFTAQMENSLDQVANHEAEWKAVLDHFFSDFTQQLDKAEKDPEEGGMRPNQMVLTSIDCPTCGRKMGIRTASTGVFLGCSGYALPPKERCKTTINLVPENEVLNVLEGEDAETNALRAKRRCPKCGTAMDSYLIDPKRKLHVCGNNPTCDGYEIEEGEFRIKGYDGPIVECEKCGSEMHLKMGRFGKYMACTNEECKNTRKILRNGEVAPPKEDPVPLPELPCEKSDAYFVLRDGAAGVFLAANTFPKSRETRAPLVEELYRFRDRLPEKLRYLADAPQQDPEGNKTMVRFSRKTKQQYVSSEKDGKATGWSAFYVDGKWVEGKK

Variants of: B1
Assay: barcode share on antibiotic plates over drug-free plates; higher = less susceptible
Conditions: with Escherichia coli (laboratory strain); antibiotic: carbenicillin; 2× MIC (3.1 µg/mL)
Description: (§1)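 A pool of E. coli strains, each edited to carry one amino-acid change in an essential protein, was grown for 48 h on minimal glucose agar with or without antibiotic; strain barcodes were sequenced; mean of two replicates.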

Variant	fold change of barcode share
L85A	0.241 ± 0.039
L85Q	0.195 ± 0.028
V23Q	0.29 ± 0.047
V23D	0.267 ± 0.16
V23A	0.228 ± 0.12
V23P	0.501 ± 0.2
V23W	0.957 ± 0.33
I241W	0.529 ± 0.2
I241P	0.556 ± 0.1
I241Q	0.462 ± 0.11
I241A	0.523 ± 0.34
V128P	0.219 ± 0.11
V128Q	0.307 ± 0.093
V128D	0.503 ± 0.028
V128W	0.374 ± 0.088
V128A	0.301 ± 0.089
F22A	0.354 ± 0.026
F22W	0.47 ± 0.038
F22Q	1.72 ± 0.32
F22P	2.29 ± 0.053
F22D	0.444 ± 0.0095

Same assay, conditions: with Escherichia coli (laboratory strain); antibiotic: gentamicin; 2× MIC (MIC 0.45 µg/mL)

Variant	fold change of barcode share
L85A	< 0.0227
L85Q	< 0.0154
V23Q	0.00658 ± 0.0049
V23D	0.0112 ± 0.0057
V23A	0.017 ± 0.0061
V23P	0.0211 ± 0.02
V23W	0.199 ± 0.26
I241W	< 0.0159
I241P	0.016 ± 0.004
I241Q	0.0373 ± 0.028
I241A	0.0254 ± 0.023
V128P	< 0.00709
V128Q	< 0.00431
V128D	< 0.0108
V128W	< 0.00444
V128A	< 0.00658
F22A	0.00784 ± 0.0042
F22W	0.0215 ± 0.018
F22D	0.0415 ± 0.019

Variants of: B2
Assay: as above
Conditions: with Escherichia coli (laboratory strain); antibiotic: carbenicillin; 2× MIC (3.1 µg/mL)
Description: as §1

Variant	fold change of barcode share
V142A	0.33 ± 0.061
V142P	0.16 ± 0.15
L189Q	0.382 ± 0.26
L189W	0.304 ± 0.093
L112W	0.77 ± 0.17
L112A	0.305 ± 0.013
L112Q	0.392 ± 0.077
L144A	0.22 ± 0.045
L144Q	0.27 ± 0.2
L141D	0.298 ± 0.14
L141A	0.253 ± 0.11
L115P	0.271 ± 0.079
L115W	0.398 ± 0.15
V114Q	0.489 ± 0.089
V114P	0.522 ± 0.12
V114A	0.45 ± 0.27
V114D	0.49 ± 0.16

Same assay, conditions: with Escherichia coli (laboratory strain); antibiotic: gentamicin; 2× MIC (MIC 0.45 µg/mL)

Variant	fold change of barcode share
V142D	< 0.0213
V142P	< 0.013
L143Q	< 0.0126
L189Q	0.0135 ± 0.012
L189A	< 0.00158
L189W	0.0042 ± 0.00063
L189P	< 0.00664
L112W	0.00375 ± 0.0027
L112A	0.00346 ± 0.00039
L112Q	< 0.00209
L144A	0.0116 ± 0.0081
L144Q	< 0.0168
L141D	0.0104 ± 0.0016
L141A	0.00441 ± 0.0014
L115A	0.00446 ± 0.0039
L115Q	0.00348 ± 0.0005
L115P	0.00334 ± 0.003
L115W	2.7 ± 2.9
V114Q	0.00209 ± 0.0018
V114A	0.0039 ± 0.0015
V114D	0.0656 ± 0.072

Variants of: B3
Assay: as above
Conditions: with Escherichia coli (laboratory strain); antibiotic: gentamicin; 2× MIC (MIC 0.45 µg/mL)
Description: as §1

Variant	fold change of barcode share
V8P	> 357 [active]
V8A	0.0185 ± 0.021
L550P	> 121 [active]
L550Q	0.0905 ± 0.1
L550A	0.0123 ± 0.01
L550W	< 0.0108
I7A	165 [active]
I7W	> 732 [active]
V204D	3.74 ± 4.2
V204P	0.00982 ± 0.0086
V204Q	< 0.00947
V204W	2.14 ± 1.5
V199P	0.00518 ± 0.00053
V199Q	< 0.00445
V199D	0.02575 ± 0.00022
V199A	< 0.0202
F616W	< 0.0091
F616A	0.0134 ± 0.0057

Same assay, conditions: with Escherichia coli (laboratory strain); antibiotic: carbenicillin; 2× MIC (3.1 µg/mL)

Variant	fold change of barcode share
V8A	0.148 ± 0.023
L550A	0.407 ± 0.13
L550W	0.3291 ± 0.0027
V204P	0.174 ± 0.056
V204Q	0.323 ± 0.28
V199P	0.267 ± 0.091
V199Q	0.282 ± 0.053
V199D	0.363 ± 0.041
F616W	0.234 ± 0.046
F616A	0.491 ± 0.097
